# Experimental data as given in PubChem BioAssay AID720709 (National Center for Advancing Translational Sciences (NCATS), 2013).
# Out of some 360,000 compounds screened, about 520 (0.14%) were called active. Inconclusive means that the source gave no clear call. Such entries were picked first, then a sample of the others. Calls come from the whole dose curve; as a rule, active = well fitted inhibition curve with a large enough effect; inconclusive = small, poorly fitted or top-dose-only effect; inactive = no such curve, though single readings can be large or run the other way. Potencies of inconclusive entries are left out as doubtful fits.
# Molecular target: Rap guanine nucleotide exchange factor 3 (Homo sapiens) (UniProt O95398)
# Sequence of UniProt O95398 (O95398 whole entry, looked up): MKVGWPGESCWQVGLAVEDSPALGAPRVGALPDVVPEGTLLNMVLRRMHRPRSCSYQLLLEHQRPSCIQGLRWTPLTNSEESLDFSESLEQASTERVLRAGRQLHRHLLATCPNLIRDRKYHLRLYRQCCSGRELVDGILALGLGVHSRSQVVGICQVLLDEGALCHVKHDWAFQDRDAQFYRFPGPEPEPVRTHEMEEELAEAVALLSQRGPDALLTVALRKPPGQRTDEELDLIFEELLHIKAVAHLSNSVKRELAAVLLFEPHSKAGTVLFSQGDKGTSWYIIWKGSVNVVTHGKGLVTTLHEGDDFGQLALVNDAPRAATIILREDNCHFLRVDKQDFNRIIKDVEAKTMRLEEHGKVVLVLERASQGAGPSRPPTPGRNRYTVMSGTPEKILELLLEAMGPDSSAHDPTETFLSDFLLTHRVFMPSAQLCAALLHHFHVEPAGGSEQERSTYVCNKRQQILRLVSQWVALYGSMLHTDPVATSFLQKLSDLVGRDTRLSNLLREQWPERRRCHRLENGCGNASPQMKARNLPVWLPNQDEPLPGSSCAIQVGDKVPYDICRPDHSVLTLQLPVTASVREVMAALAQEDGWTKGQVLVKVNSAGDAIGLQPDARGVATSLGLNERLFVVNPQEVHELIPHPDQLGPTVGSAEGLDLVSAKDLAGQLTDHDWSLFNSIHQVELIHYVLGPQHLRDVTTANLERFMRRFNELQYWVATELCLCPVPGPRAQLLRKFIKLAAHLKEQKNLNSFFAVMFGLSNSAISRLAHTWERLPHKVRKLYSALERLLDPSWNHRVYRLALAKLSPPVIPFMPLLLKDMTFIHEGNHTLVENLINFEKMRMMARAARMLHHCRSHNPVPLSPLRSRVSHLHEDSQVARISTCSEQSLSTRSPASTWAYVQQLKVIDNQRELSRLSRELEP
# Experiment: qHTS for Antagonist of cAMP-regulated guanine nucleotide exchange factor 3 (EPAC1): primary screen; note: nearly all actives have a fitted effect of over 50% in size;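 for activity change, negative = inhibition: plate controls were vehicle for no effect and positive control for full effect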
# Conditions: EPAC1 GEF assay, Rap1b-BODIPY-GDP exchange fluorescence; activity change, negative = inhibition: at 115 µM (top of the series)
# Potency is the fitted concentration of half-maximal effect; tags give direction and shape of the fitted curve.
SMILES,Potency,"activity change, negative = inhibition"
Cc1ccc(CS(=O)Cc2ccc(C(=O)NC3CCC(C)CC3)o2)cc1 (configuration not stated),"inconclusive [inhibitor, full curve, poor fit]",–
O=C(NCCN1CCN(c2ccccc2)CC1)C1CCN(S(=O)(=O)c2cccc3nsnc23)CC1,–,inactive: -19.6%
COc1cccc(-n2c(C)c3c(OC)cccc(=O)c3c2C)c1,"inconclusive [inhibitor, single point]",–
CC(C)(C)C1CCC(=NNC(=O)c2ccco2)CC1 (configuration not stated),–,inactive: -2.45%
C[C@H]1CN(S(=O)C(C)(C)C)[C@@H](CCO)/C1=C\CCO (some centres not stated),–,inactive: -21.9%
O=C1CSC(=S)N1N=Cc1ccc(Cl)cc1Cl,"inconclusive [inhibitor, full curve, poor fit]",–
N#C/C(=C\c1cccc([N+](=O)[O-])c1)C(=O)NCc1ccc(Cl)cc1,–,inactive: -23.6%
CC(=O)NCCC(=O)N(Cc1ccccc1)c1nc2c(C)cccc2s1,"inconclusive [inhibitor, single point]",–
CC(=O)Nc1ccc(NS(=O)(=O)c2cn(C)c(=O)n(C)c2=O)cc1,"inconclusive [inhibitor, single point]",–
Cc1ccc(-c2nn(-c3cccc(F)c3)cc2CNCCc2ccncc2)o1,"inconclusive [inhibitor, single point]",–
Cc1cccc(NC(c2ccc(O)cc2)c2ccc3ccc(C)nc3c2O)n1 (configuration not stated),"inconclusive [inhibitor, partial curve]",–
O=C(O)c1ccc(Cl)c(S(=O)(=O)Nc2ccc3[nH]c(=O)[nH]c3c2)c1,"inconclusive [inhibitor, partial curve, poor fit]",–
C[C@H]1CN([C@@H](C)CO)S(=O)(=O)c2ccc(Br)cc2O[C@@H]1CN(C)C(=O)Cc1ccccc1,–,inactive: 2.76%
CN(CC(=O)Nc1ccccc1Br)C(=O)CCc1ccccc1,"inconclusive [inhibitor, single point]",–
CC(=O)Oc1ccc(-c2cccc(C(=O)OCC(=O)N(C)c3ccccc3)c2)cc1,"inconclusive [inhibitor, partial curve]",–
COc1cc(OC)c2c(O)c3c(c(-c4c5c(c(O)c6c(OC)cc(OC)cc46)CO[C@@H](C)[C@H]5O)c2c1)[C@H](O)[C@H](C)OC3,active: 35.5 µM,–
CSc1ncccc1C(=O)NCCc1ccc(Cl)cc1,"inconclusive [inhibitor, full curve, poor fit]",–
CCOC(=O)c1cnc(-c2ccccc2)nc1N1CC(C)OC(C)C1 (configuration not stated),"inconclusive [inhibitor, single point]",–
CCCCCOC(=O)C1=C(C)Nc2nnnn2C1c1ccccc1Cl (configuration not stated),"inconclusive [inhibitor, partial curve]",–
CN(C)c1ccc(CNC(=O)C2Cc3c(-c4ccccc4Oc4ccccc4)ccnc3O2)cc1 (configuration not stated),"inconclusive [inhibitor, single point]",–
O=C(C[C@H]1CC[C@@H](NC(=O)c2ccncc2)[C@@H](CO)O1)NCC1CC1,–,inactive: -10.8%
COc1ccccc1NC(=O)CSc1ccc(-c2cccs2)nn1,"inconclusive [inhibitor, partial curve]",–
CCOc1ccc(C(=O)NCC(=O)N2CCCC2)cc1,"inconclusive [inhibitor, full curve]",–

SMILES,Potency,"activity change, negative = inhibition"
Fc1ccc2nc(-c3ccccc3)ccc2c1,"inconclusive [inhibitor, partial curve, poor fit]",–
Fc1ccc(-c2n[nH]c(=S)n2Cc2ccccc2)cc1,–,inactive: -11.6%
COc1ccc(S(=O)(=O)n2nc(OC(=O)c3ccco3)cc2N)cc1,"inconclusive [inhibitor, single point]",–
O=C(c1ccccc1)c1ccc2ccccc2c1,–,inactive: 5.83%
O=C(O)c1nc(-c2ccccc2)n(-c2cccc(C(F)(F)F)c2)n1,"inconclusive [inhibitor, full curve, poor fit]",–
CC[C@H](C)[C@H]1CNC(=O)C(=O)N1CC1CCN(CCc2ccccc2)CC1,"inconclusive [inhibitor, partial curve]",–
S=C1N(c2ccccc2)C(c2ccc(Br)cc2)N2CCCN12 (configuration not stated),"inconclusive [inhibitor, partial curve]",–
Cc1nn(-c2ccc(F)cc2)c2nc(N)c(C#N)c(-c3ccc(O)c(O)c3)c12,"inconclusive [inhibitor, partial curve, poor fit]",–
O=C(Nc1ccc(S(=O)(=O)Nc2nccs2)cc1)c1cc(-c2ccccc2Cl)nc2ccccc12,–,inactive: -18.7%
COc1cc(C=c2c3ccccc3n3c2cc(-c2ccccc2)[n+]3C)cc(OC)c1OC,–,inactive: 5.25%
COC(=O)C[C@H]1CC[C@H](NC(=O)Nc2ccccc2)[C@@H](CO)O1,–,inactive: 4.33%
COC(=O)c1cc(-c2c[nH]c3ccccc23)n[nH]1,–,inactive: -13.7%
CC1(OC(=O)C2CCCC2)C(=O)C=C2C=C(c3ccsc3)N(C3CCCC3)C=C2C1=O (configuration not stated),–,inactive: -11.6%
CCN(CC(=O)Nc1ccc(NC(C)=O)cc1)C(=O)CN1C(=O)C2CCCCC2C1=O (configuration not stated),–,inactive: -7.45%
Cc1nn(CC(C)C)c2sc(C(=O)NC3CC(C)(C)NC(C)(C)C3)cc12,"inconclusive [inhibitor, partial curve]",–
CCN(CC(=O)Nc1c(F)cccc1F)C(=O)c1cccc(S(=O)(=O)N2CCCc3ccccc32)c1,"inconclusive [inhibitor, single point]",–
COc1ccc(N/C(C)=C/C(=S)Nc2ccccc2)cc1,"inconclusive [inhibitor, single point]",–
Cc1cc(C)nc(NS(=O)(=O)c2ccc(NC(=O)c3cccc(N4C(=O)CCC4=O)c3)cc2)n1,"inconclusive [inhibitor, full curve, poor fit]",–
O=S(=O)(NCCNS(=O)(=O)c1c(F)cccc1F)c1ccc2c(c1)OCCO2,–,inactive: 3.22%
Cc1cc(C)cc(S(=O)(=O)Cc2noc(C(=O)NCc3ccccc3)c2C(=O)NCc2ccccc2)c1,"inconclusive [inhibitor, single point]",–
CCc1c(C2(O)CCCCC2)[nH]c2cnccc12,"inconclusive [inhibitor, single point]",–
COc1ccc(-c2nc(CCNS(=O)(=O)c3ccc4c(c3)OCCO4)cs2)cc1,"inconclusive [inhibitor, single point]",–
O=C(O)c1cccc(N2C(=O)/C(=C/c3ccc(SCc4ccc(Cl)cc4)o3)SC2=S)c1,–,inactive: -11.3%

SMILES,Potency,"activity change, negative = inhibition"
COC(=O)c1[nH]c2c(c1C)C(=O)CC(c1cc(OC)ccc1OC)C2 (configuration not stated),"inconclusive [inhibitor, partial curve]",–
Cc1nnc(NC(=O)CSc2ccc(-c3ccco3)nn2)s1,–,inactive: -4.29%
C/C(=N\NC(=O)c1cccc(O)c1)c1cccc(NC(=O)c2ccc(F)cc2)c1,"inconclusive [inhibitor, single point]",–
COc1ccc2[nH]c(=O)c(CN(Cc3nnnn3Cc3ccco3)C3CCCCC3)cc2c1,"inconclusive [inhibitor, partial curve, poor fit]",–
COc1ccc(N=C2O/C(=C/c3sc(=S)n(CC4CCCO4)c3O)N=C2C#N)cc1 (configuration not stated),"inconclusive [inhibitor, single point]",–
O=C(NCc1nc(-c2ccc(C(F)(F)F)cc2)no1)c1cccs1,"inconclusive [inhibitor, single point]",–
CCCN(CC1CC1)c1cc2c(c3c1ccn3C)C1CCC2C1 (configuration not stated),–,inactive: -15.7%
CC(=O)Nc1ccc(S(=O)(=O)C(C#N)c2nc3ccccc3nc2NCCCO)cc1 (configuration not stated),"inconclusive [inhibitor, single point]",–
COc1ccc(OC)c(NC(=O)c2cc(OC(C)=O)cc(C(=O)Nc3cc(OC)ccc3OC)c2)c1,"inconclusive [inhibitor, partial curve, poor fit]",–
CCC(CO)Oc1cc(NC(=O)c2ccccc2F)c2ncn(C(C)C)c2c1 (configuration not stated),"inconclusive [inhibitor, partial curve]",–
Cc1cccc(N2CCN(S(=O)(=O)c3ccc(Cl)nc3)CC2C)c1 (configuration not stated),–,inactive: -4.97%
O=C1NC(=Nc2ccc(Cl)cc2)/C(=C/c2ccco2)S1,"inconclusive [inhibitor, single point]",–
COc1ccc(NC(=O)c2sccc2C)c([N+](=O)[O-])c1,–,inactive: -8.26%
CCCc1cc(C(=O)Nc2ccccc2C(=O)OC)no1,"inconclusive [inhibitor, single point]",–
O=[N+]([O-])c1cccc(N/N=C/c2cc([N+](=O)[O-])ccc2O)c1,"inconclusive [inhibitor, full curve]",–
Cc1nn(-c2ccccc2)c(C)c1C(=O)OCC(=O)Nc1ccccc1,–,inactive: -10.9%
CCc1ccc(NC(=O)CSc2nncn2-c2cccnc2)cc1,"inconclusive [inhibitor, partial curve]",–
CCOc1cc(CNc2ccc(O)cc2)ccc1OCc1ccc(Cl)cc1Cl,"inconclusive [inhibitor, full curve]",–
Cc1ccccc1CN(c1ccc(C(=O)N/N=C/c2ccc(OCC(N)=O)cc2)cc1)S(C)(=O)=O,"inconclusive [inhibitor, single point]",–
CCOC(=O)C1CCCN(CC(=O)Nc2ccc(C(=O)Nc3ccccc3OC)cc2)C1 (configuration not stated),"inconclusive [inhibitor, partial curve, poor fit]",–
Cc1cc(N)ccc1-n1nc2ccccc2n1,–,inactive: 3.43%
